Test results taken from PubChem BioAssay AID588855 (National Center for Advancing Translational Sciences (NCATS), 2011).
In all, about 410,000 compounds went through this assay and about 5,000 (1.2%) were called active. This list was built around the results that the source calls inconclusive (neither active nor inactive); the mix of calls is not that of the screen. The call rests on the fitted dose curve; in most records, active means well fitted inhibition curve with a large enough effect; inconclusive means small, poorly fitted or top-dose-only effect; inactive means no such curve, though single readings can be large or run the other way. Potencies of inconclusive entries are doubtful fits and often do not repeat.

Assay: qHTS for Inhibitors of TGF-b; further: nearly all actives have a fitted effect of over 65% in size
Conditions: HepG2 CAGA-GFP TGF-b/SMAD3 reporter, GFP fluorescence, 18 h, TGF-beta stimulated, 500 pg/mL final; series mostly up to 46.1 µM; activity, negative = inhibition: at the top concentration
Method in brief: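 Per well, imaged GFP fluorescence of HEPG2 CAGA-GFP cells gives the signal; cells get compound, then TGF-beta (500 pg/mL final), 18 h at 37 degrees C; %Activity versus -TGF-beta and +DMSO controls.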
On the % scale 0 is the no-effect control and ±100 the full control effect; potency means the concentration at half of the fitted maximal effect; tags describe the fitted curve by direction and shape.

SMILES | Potency | activity, negative = inhibition
Cc1ccccc1Cn1c(=O)n(CCCC(=O)NCc2ccco2)c(=O)c2ccccc21 | inconclusive: 11.2 µM [inhibitor, partial curve, poor fit] | –
CC(C)(C)C1CCC(CN2C(Nc3ccccc3)=NC[C@@H]2Cc2ccccc2)CC1 (stereo partly drawn) | inconclusive: 20 µM [inhibitor, partial curve, poor fit] | –
CN(C)S(=O)(=O)N1CCC(Oc2cccc(C(=O)NCCC3=CCCCC3)c2)CC1 | inconclusive: 0.708 µM [inhibitor, partial curve, poor fit] | –
S=C(NCCCc1ccccc1)NCc1ccccc1 | inconclusive: 35.5 µM [inhibitor, single point] | –
O=S(=O)(Nc1ccc(Cc2ccncc2)cc1)c1ccc(Br)cc1 | inconclusive: 7.94 µM [inhibitor, partial curve, poor fit] | –
C/C(=N\NC(=S)Nc1c(C)cccc1C)c1ccc(OC(F)F)cc1 | inconclusive: 7.94 µM [inhibitor, partial curve] | –
Nc1ccc(/C=C2\C=Cc3ccccc32)cc1 | – | inactive: -8.38%
CCOC(=O)c1ccc(Nc2c(-c3ccc(O)cc3)nc3nc[nH]n23)cc1 | – | inactive: 4.97%
CCOC(=O)C1=CCN(S(=O)(=O)c2ccccc2C)C1c1ccc(Br)cc1 (stereo not drawn) | inconclusive: 10 µM [inhibitor, partial curve, poor fit] | –
CCCN1CCC(=O)N([C@H](CO)Cc2ccccc2)CC1 | inconclusive: 35.5 µM [inhibitor, single point] | –
CC1c2cc3c(cc2CCN1C(=O)c1cccc(Cl)c1)OCCCO3 (stereo not drawn) | inconclusive: 11.2 µM [inhibitor, partial curve] | –
O=c1[nH]c(C2CCCN(S(=O)(=O)c3ccc(F)cc3)C2)nc2c1nnn2Cc1ccccc1 (stereo not drawn) | inconclusive: 35.5 µM [inhibitor, single point] | –
COc1ccccc1CNC(=O)Cn1ncc2c(=O)oc3ccc(C)cc3c21 | – | inactive: 0.222%
Cc1ccc(Nc2c(-c3ccc(C)cc3)nc3cnccn23)cc1 | inconclusive: 10 µM [inhibitor, partial curve, poor fit] | –
O=C(CCCN1C(=O)/C(=C/c2cccs2)SC1=S)Nc1cccc(O)c1 | inconclusive: 35.5 µM [inhibitor, single point] | –
CCCCC(CC)Cn1c(O)c(/C=C2\C=NN=C2c2ccccc2)sc1=S (stereo not drawn) | inconclusive: 35.5 µM [inhibitor, partial curve, poor fit] | –
CC(C)c1ccc(C(=O)N2CCOCC2c2cc(C(=O)Nc3ccccc3)no2)cc1 (stereo not drawn) | – | inactive: 49.4%
Cc1ccc(-n2c(C)cc(C(=O)COC(=O)c3ccc[nH]c3=O)c2C)cc1C | – | inactive: 0%
